# System: C57/BL6 mice challenged with LPS (E.coli, 3 mg/kg, i.t.)
# Test: LPS-induced pneumonia (lung injury) model
# Conditions: 1 mg/kg i.p. 10 min after LPS i.t. 3 mg/kg
# Method: To assess any in vivo anti-inflammatory activity, four compounds [C2, C6, C7 and C9, 1 mg/kg, intraperitoneal (i.p.) injection] were administered in a LPS-induced pneumonia model. Briefly, compounds were administered to mice at various doses through an i.p. injection 10 min after mice were given LPS (i.t. 3 mg/kg). Mice were then euthanized 16 h later using pentobarbital; BAL was collected and assayed for IL1, IL6 and TNF cytokine levels. These compounds varied in their ability to ameliorate lavage cytokines, protein concentration, and total cell counts from LPS-treated mice (Fig. 5A–E).
# Figure 5 PDE4 inhibitors ameliorate LPS induced lung injury. C57/BL6 mice were challenged with LPS (E.coli, 3 mg/kg, i.t.) followed by i.p. administration of vehicle, 1 mg/kg of compound 2, 6, 7 or 9. Mice were then euthanized 18 h later using pentobarbital, and lungs were lavaged with saline, harvested, and then homogenized. Lavage cytokine secretion (A–C), protein concentrations (D) and cell counts (E) were measured. F. H&E staining was performed on lung samples. Original magnification, ×20. The data represent n = 4–6 mice/group, *P<0.05 versus vehicle.
# Male C57LB/6 mice (purchased from Jackson Laboratories) were acclimated at the University of Pittsburgh Animal Care Facility and maintained according to all federal and institutional animal care guidelines and under a University of Pittsburgh Institutional Animal Care and Use Committee (IACUC)-approved protocol (14023127). Male C57LB/6 Mice were deeply anesthetized with ketamine (80 to 100 mg/kg of body weight, intraperitoneally [i.p.]) and xylazine (10 mg/kg, i.p.), and then the larynx was well visualized under a fiber optic light source before endotracheal intubation with a 3/400 24-gauge plastic catheter. Compounds were diluted in PBS and administered to mice at 1 mg/kg through an i.p. injection 10 min after mice were given with LPS (i.t. 3 mg/kg). Mice were then euthanized 18 h later; Lavage fluids were collected from mice to measure protein and cytokine concentration. Lungs were isolated from mice for H&E staining.
row,Structure (SMILES),histological evidence of lung injury (H&E)
1,COc1ccc(C2OCC3(O)C(c4ccc(OC)c(OC)c4)OCC23)cc1OC (stereo not drawn) [Compound 6],diminished histological evidence of lung injury
2,"COc1ccc([C@@H]2OC[C@H]3[C@@H]2CO[C@@H]3c2ccc(O[C@@H]3O[C@H](CO)[C@@H](O)[C@H](O)[C@H]3O)c(OC)c2)cc1OC [Compound 7, Forsythin]",diminished histological evidence of lung injury
3,COc1cccc(CN2N=NC3C(=O)N(c4ccc(OC)c(OC)c4)C(=O)C32)c1 (stereo not drawn) [Compound 9],diminished histological evidence of lung injury
